Assay results as given in patent US20080311122A1, “Antagonists of Hmgb1 and/or Rage and Methods of Use Thereof” (Medimmune, LLC, priority 2005, published 2008).

Columns and labels:
[1] = molecular target: T1, recombinant HMG1 binding to RAGE-Fc (Homo sapiens, UniProt P09429); assay: HMG1 binding to RAGE-Ig by ELISA; conditions: at the concentrations tested
T1 construct: made in house; host or cells: E. coli (HMG1)
T1 sequence (P09429 1-215): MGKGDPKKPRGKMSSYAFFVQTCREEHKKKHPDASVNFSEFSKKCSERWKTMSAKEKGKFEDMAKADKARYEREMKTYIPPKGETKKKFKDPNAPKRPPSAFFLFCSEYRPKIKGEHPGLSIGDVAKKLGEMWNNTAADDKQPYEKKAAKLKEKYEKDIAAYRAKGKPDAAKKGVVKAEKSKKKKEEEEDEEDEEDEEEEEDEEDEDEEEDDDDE
Method: HMG1 binding to RAGE-Ig by ELISA: 50 μl/well of RAGE-Fc fusion protein at 5 μg/ml in PBS was added to each well of an ELISA plate and incubated overnight at 4° C. The plate was then blocked with 200 μl of 5% milk at 37° C. for 1 hr and washed 3× with PBS/Tween. 50 μl/well of diluted HMGB1 solution. For dose curves, HMGB1 concentrations started at 4 ug/ml in PBS. For antibody blocking the HMGB1 was preincubated in another plate with human anti-HMG1 antibodies or buffer, then transferred to the RAGE-coated plate. The plates were then incubated at room temperature for 2 hours and washed 3×. To detect any HMG1 bound to the immobilized RAGE-Fc a mixture of biotinylated mouse anti-HMG1 mAbs (10D4, 4H11, 3E10 and 5C12) each at 1 ug/ml, total Ab: 4 ug/ml, were added to each well and the plate was incubated for 1 hour at room temperature. The plate was then washed and Strepavidin-HPR was added to each well and incubated 15 min. The plate was then washed 3× and blotted dry. 100 μl of TMB developing agent was added and the plate read at 650 nm. Values were calculated as percent of inhibition with HMG1 alone equal to 0% inhibition. The data in FIG. 9 and summarized in Table 1 represent the average of two separate experiments.

HMG2 = molecular target: T2, HMG2 (Bos taurus, UniProt P40673); assay: Binding to HMG1 vs. HMG2 ELISA; parameters: species or system calf; conditions: immobilized antigen
T2 construct: from tissue; host or cells: calf thymus (as read from the sentence)
T2 sequence (P40673 1-209): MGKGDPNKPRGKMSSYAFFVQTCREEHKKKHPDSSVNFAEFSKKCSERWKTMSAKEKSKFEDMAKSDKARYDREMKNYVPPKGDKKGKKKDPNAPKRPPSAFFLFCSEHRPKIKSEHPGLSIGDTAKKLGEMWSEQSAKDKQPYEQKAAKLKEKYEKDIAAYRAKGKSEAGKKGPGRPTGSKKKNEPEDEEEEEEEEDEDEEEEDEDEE
Method: Binding to HMG1 vs. HMG2: Ultra high-binding ELISA plates (ThermoLab systems, #3855) were coated with either 5 ug/mL of Calf thymus HMGB1 or HMBG2 diluted in 10 mM Phosphate buffered saline (PBS), pH 7.2 and incubate overnight at 4 degrees. The plates were washed twice with Ca and Mg free PBS and 100 microliters of anti-HMGB1 antibody diluted in 10 mM PBS, pH 7.2+1% bovine serum albumin (BSA) to a final concentration of 10 ug/mL was added to each well and the plates were incubated 1 hour at room temperature. The wells were washed three times with 100 μl of PBS, pH 7.2. HRP labeled goat-anti-human IgG Kappa-chain (KPL, #14-10-10) and goat-anti-human IgG Lambda-chain (KPL, #14-10-11) were diluted in 10 mM PBS+1% BSA 1:1000 and 100 μl were added to each well and incubated for 1 hour at room temperature. The wells were then washed three times with 100 μl of PBS, pH 7.2. OPD substrate (Pierce chemical company, #34006) was prepared following the manufacturers instructions and 100 μl of prepared substrate was added to each well and the plates incubated at room temperature in the dark for 20-30 minutes. The reaction was stopped with the addition of 100 μl of 2M H2SO4, and the plates read on a plate reader at a wavelength of 490 nm.

[2] = Differential scanning calorimetry; assay type: physicochemical; parameters: unit: °C; conditions: in °C (unit assumed)
Method: Differential Scanning Calorimetry: Thermal melting temperatures (Tm) were measured with a VP-DSC (MicroCal, LLC) using a scan rate of 1.0° C./min and a temperature range of 25-120° C. A filter period of 8 seconds was used along with a 5 minute pre-scan thermostating. Samples were prepared by dialysis into 25 mM Histidine-HCl, pH 6 using Pierce dialysis cups (3.5 kD). Average Mab concentrations were 50 μg/mL as determined by A280. Melting temperatures were determined following manufacturer procedures using Origin software supplied with the system. Briefly, multiple baselines were run with buffer in both the sample and reference cell to establish thermal equilibrium. After the baseline was subtracted from the sample thermogram, the data were concentration normalized and fitted using the deconvolution function.

[3] = test system: HMGB1 in untreated or LPS activated HUVEC cells; assay: Immunofluorescence of HUVEC; assay type: cell-based, human
Method: Immunofluorescence: Intracytoplasmic (ic) HMGB1 was quantitated by direct immunofluorescence. HUVEC were harvested by trypsin-EDTA treatment and seeded on a glass coverslip. Once the cells are settled, they were stimulated with 0.2 μg/ml of LPS (Sigma) for 4 hours. The cells were fixed in 2% paraformaldehyde for 15 min and then permeabilized in 0.2% Triton X-100 for 2 min. Fixed and permeabilized cells were incubated with anti-HMGB1 antibodies at 1 μg/ml for 1 hour at room temperature. Cells were then washed to remove excess or nonspecifically bound primary antibody followed by incubation with anti human IgG conjugated with fluorescence (Pierce). The sections were mounted with fluoromount (Southern Associates, Birmingham, Ala.), and the images were processed with a Nikon microscope (Japan) and a SPOT imaging system (Diagnostic Instrument).

relative binding to HMG1 and HMG2 (HMG2): specific for HMG1
B1: S6: human anti-HMG1 antibody, ATCC PTA-6143; VL/VH aa SEQ ID NO: 9/11 (antibody, listed as Homo sapiens, V domains shown)
VH: EVQLLESGGGLVQPGGSLRLSCAASGFTFSWYDMSWVRQAPGKGLEWVSRISPSGGYTMYADSVKGRFTISRDNSKNTLYLQMNSLRAEDTAVYYCARLEVGATSGGTAFDIWGQGTMVTVSS
VL: [gap - about 100 residues]
block of recombinant HMG1 binding to RAGE [1]: significant ability to block the binding of HMG1 to RAGE
Tm [2]: 76.3
immunostaining of HMGB1 in HUVEC [3]: did not recognize actively secreted HMGB1; also recorded: recognized nuclear HMGB1

Entries after “also recorded” stand apart in the source; their conditions may differ.
